The supplement of paper PMC3334620
Whole data set: some 33,000 sequences, median “E-score (-0.5 to 0.5)” near -0.035, cut for the highest 2% near 0.35. Some of the results follow.

Molecular target: T1, Pdr3 (UniProt P33200)
T1 sequence: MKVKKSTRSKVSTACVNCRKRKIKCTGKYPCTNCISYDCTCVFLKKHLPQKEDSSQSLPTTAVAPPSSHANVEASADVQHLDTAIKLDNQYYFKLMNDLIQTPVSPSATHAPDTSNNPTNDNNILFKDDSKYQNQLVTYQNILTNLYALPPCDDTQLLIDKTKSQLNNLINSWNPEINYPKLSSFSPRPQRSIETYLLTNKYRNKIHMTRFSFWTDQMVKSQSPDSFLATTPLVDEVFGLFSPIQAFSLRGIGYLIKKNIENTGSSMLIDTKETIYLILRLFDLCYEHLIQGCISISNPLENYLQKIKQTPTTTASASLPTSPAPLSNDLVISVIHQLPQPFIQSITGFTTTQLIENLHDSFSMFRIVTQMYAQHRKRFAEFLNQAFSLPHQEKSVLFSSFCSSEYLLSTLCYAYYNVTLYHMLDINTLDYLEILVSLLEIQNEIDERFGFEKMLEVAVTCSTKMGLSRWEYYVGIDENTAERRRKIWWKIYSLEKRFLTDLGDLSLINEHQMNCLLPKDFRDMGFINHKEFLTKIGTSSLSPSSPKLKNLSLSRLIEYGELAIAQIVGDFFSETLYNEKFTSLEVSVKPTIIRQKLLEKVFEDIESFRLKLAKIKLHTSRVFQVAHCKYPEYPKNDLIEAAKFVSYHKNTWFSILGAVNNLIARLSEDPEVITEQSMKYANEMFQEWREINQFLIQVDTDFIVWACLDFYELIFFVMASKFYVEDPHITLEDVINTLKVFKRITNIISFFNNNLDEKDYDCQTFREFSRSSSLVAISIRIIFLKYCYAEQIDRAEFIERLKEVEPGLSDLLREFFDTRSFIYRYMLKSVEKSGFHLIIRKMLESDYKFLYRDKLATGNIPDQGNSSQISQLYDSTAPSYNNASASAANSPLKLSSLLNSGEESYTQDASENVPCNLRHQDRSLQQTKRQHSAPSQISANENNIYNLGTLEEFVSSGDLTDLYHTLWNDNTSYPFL
Assay: PBM E-score (8-mer binding enrichment) (E-score (-0.5 to 0.5)); higher = stronger / more preferred TF binding; most listed sequences are background and not binding sites
Conditions: protein concentration: 200 nM; construct: GST-full length
Summary of the method: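 Yeast transcription factors, full-length or as DNA-binding domains, were expressed with a GST tag using PURExpress in vitro transcription/translation. At about 100-200 nM they were applied to universal all-10-mer Agilent arrays, double-stranded by primer extension on fresh or once-stripped slides. Fluorescent anti-GST detected bound protein, and masliner normalised the scans. E-scores for ungapped eight-base words, pooled with reverse complements, came from the Universal PBM Analysis Suite.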

Compared with CCGATGTC, CAGCTAAC is lower in “PBM E-score” value: 0.0266 for the first, -0.291 for the second.

Compared with CGCTTGTA, GAGTCACC is lower in “PBM E-score” value: 0.0798 for the first, -0.0823 for the second.

First: ACCTAGGA
Second: GCCGGCAA
The “PBM E-score” value of the first is lower: 0.0433 for the first, 0.37 for the second.

First: AAAGGGAG
Second: CTATTGTA
The “PBM E-score” value of the first is lower: -0.214 for the first, -0.0911 for the second.

Going from GCCGCTAA to AGCTGTAC, the “PBM E-score” value falls from 0.123 to 0.0207.

Compared with ATTCATGG, CAATTCTA is lower in “PBM E-score” value: -0.0272 for the first, -0.33 for the second.

First: ACCTGCAA
Second: CGCCAAGA
The “PBM E-score” value of the first is lower: -0.184 for the first, -0.0296 for the second.

Going from ATACATGA to CCCATGGA, the “PBM E-score” value rises from -0.112 to -0.0126.

Going from CATTGAAA to GCACCACA, the “PBM E-score” value rises from -0.087 to 0.00291.

Compared with TAACGAGA, AGCACCAG is lower in “PBM E-score” value: -0.126 for the first, -0.207 for the second.

First: CCGCCTCC
Second: AAGTTCTA
The “PBM E-score” value of the first is higher: 0.128 for the first, -0.0203 for the second.

Compared with CGACCTTA, AATAGGTA is lower in “PBM E-score” value: -0.0108 for the first, -0.179 for the second.

First: AAAACCAT
Second: AGATGTGC
The “PBM E-score” value of the first is lower: -0.153 for the first, -0.039 for the second.

Compared with TTATTGAA, CGGTGGCA is higher in “PBM E-score” value: -0.179 for the first, 0.0244 for the second.

First: AAGGACGG
Second: ACAAGCAA
The “PBM E-score” value of the first is higher: 0.0563 for the first, -0.144 for the second.

Compared with CCGTTCCG, CGATGTAC is lower in “PBM E-score” value: 0.477 for the first, -0.0342 for the second.

Going from CTAAGCGC to CAGCCTGC, the “PBM E-score” value falls from -0.166 to -0.341.

Going from CAGATTAA to AACCGTAA, the “PBM E-score” value falls from 0.0912 to -0.0242.

First: GTCTGAAA
Second: ACCCCAGA
The “PBM E-score” value of the first is higher: -0.00329 for the first, -0.172 for the second.

Going from AGCTGCCG to AGACCCAG, the “PBM E-score” value falls from 0.104 to -0.108.

Compared with GTCTACAA, ACCCGCCA is higher in “PBM E-score” value: -0.284 for the first, 0.0368 for the second.

Compared with CTCGGACC, GAATAATC is lower in “PBM E-score” value: 0.359 for the first, 0.0628 for the second.

First: AGATTAAT
Second: CCCACGGA
The “PBM E-score” value of the first is lower: 0.00312 for the first, 0.424 for the second.

Compared with AAGGGTGT, ATGGTACG is lower in “PBM E-score” value: -0.0354 for the first, -0.0722 for the second.

Compared with GGTCTCAC, AATACGGA is higher in “PBM E-score” value: -0.0581 for the first, 0.351 for the second.

First: GGCGCCTA
Second: CTTTGTTC
The “PBM E-score” value of the first is lower: -0.0415 for the first, 0.219 for the second.

Compared with AACGAGAG, TAGAGCTA is lower in “PBM E-score” value: 0.0146 for the first, -0.304 for the second.

First: CATGATAG
Second: CAAAGCGA
The “PBM E-score” value of the first is lower: -0.135 for the first, -0.119 for the second.

Going from CCTTGCTC to CGAACTTC, the “PBM E-score” value rises from -0.0469 to -0.0354.

First: AATTCGTG
Second: ATGCACAC
The “PBM E-score” value of the first is higher: 0.0172 for the first, 0.0155 for the second.

Going from ACCGCGCC to AGTGAACC, the “PBM E-score” value falls from 0.128 to 0.116.

Going from CACGAAAG to GTCTTAAA, the “PBM E-score” value falls from -0.0162 to -0.161.

Going from CATACGTC to GACTGTCA, the “PBM E-score” value rises from -0.234 to -0.104.

Compared with CAAGGGAA, CTTTAATC is higher in “PBM E-score” value: -0.144 for the first, -0.0298 for the second.

First: CAGAAGTC
Second: TATAGCAA
The “PBM E-score” value of the first is lower: -0.203 for the first, -0.0593 for the second.

Compared with CGCCGGAA, AACCTTGA is lower in “PBM E-score” value: 0.45 for the first, -0.00866 for the second.

Compared with ACCGGCCT, CTGTCCCC is lower in “PBM E-score” value: 0.0753 for the first, -0.0565 for the second.

Compared with GACACCAA, ATAATCTA is lower in “PBM E-score” value: 0.0643 for the first, 0.0572 for the second.

Compared with GGCGTCCC, CGCCCTAA is lower in “PBM E-score” value: 0.00409 for the first, -0.138 for the second.

First: CAGCCAGC
Second: ATAAGACC
The “PBM E-score” value of the first is lower: -0.164 for the first, -0.0803 for the second.

First: CAGAGCAA
Second: CCGGAACC
The “PBM E-score” value of the first is lower: -0.0115 for the first, 0.476 for the second.

First: CATGACTC
Second: CTGGTGCA
The “PBM E-score” value of the first is lower: -0.343 for the first, -0.256 for the second.

Going from GATTATAC to AAGCCAGG, the “PBM E-score” value falls from 0.183 to -0.149.
